In ChEMBL document CHEMBL4888484, “Replenishing the malaria drug discovery pipeline: Screening and hit evaluation of the MMV Hit Generation Library 1 (HGL1) against asexual blood stage Plasmodium falciparum ,using a nano luciferase reporter read-out” (2022):
Where “and” joins values, the source holds several entries; their conditions need not be identical. Equal entries are not always repeated. Hit rate of the full screen: of about 150,000 compounds, about 540 (0.36%) showed an effect of 50% or more. The list shows a part of the results.

System: Plasmodium falciparum
Assay: Primary screen in NF54 nanoGlo assay, in single point, at 2uM, 72h; a lower Z score goes with more inhibition
Format: functional, Erythrocyte
Conditions: timepoint 72 hour

Structure (SMILES): C#CCN(C(=O)c1cnn(-c2ccncc2)c1C)c1nccs1
- % Inhibition: 1%
- Z score: -0.15

Structure (SMILES): COc1cc(CN2CCC[C@H](c3nccs3)C2)cc(OC)c1OC
- % Inhibition: -9%
- Z score: 1.18

Structure (SMILES): COc1ccc(Cc2nc(NC(=O)C3(c4ccc(OC)cc4)CCOCC3)n[nH]2)cc1
- % Inhibition (2 µM): -14% and -6%
- Z score (2 µM): 1.79 and 0.77

Structure (SMILES): C[C@H](O)CN1CCC(CN(C)Cc2ccc(Cl)s2)CC1
- % Inhibition: 0%
- Z score: 0

Structure (SMILES): COCC1=CCN(C(=O)NCc2cnc(N3CCOCC3)c(F)c2)CC1
- % Inhibition: -3%
- Z score: 0.29

Structure (SMILES): Cc1nc(CN(C)Cc2cccc(-c3ccncc3)c2)cs1
- % Inhibition: -1%
- Z score: 0.19

Structure (SMILES): C[C@@H](Cc1cc(C(=O)N(C)Cc2cc(-c3ccccc3)on2)on1)c1ccccc1
- % Inhibition: -4%
- Z score: 0.7

Structure (SMILES): FC(F)(F)c1cc(-c2ccc(Cl)cc2)nc(Oc2ccc(-c3ccccc3)cc2)n1
- % Inhibition: 9%
- Z score: -1.01

Structure (SMILES): Cc1cccc(O[C@@H](C)C(=O)N2CCc3[nH]ncc3C2)c1
- % Inhibition: -7%
- Z score: 0.97

Structure (SMILES): COCCn1ccnc1C1CCN(C(=O)c2nnc3nc(C)cc(C)n23)CC1
- % Inhibition: -2%
- Z score: 0.2

Structure (SMILES): O=c1[nH]c2ccccc2cc1-c1cc(NCc2ccccn2)nc2[nH]ccc12
- % Inhibition: 3%
- Z score: -0.57

Structure (SMILES): Cc1cc(N)n(CC(=O)N2CCCC[C@H]2c2nc3ccccc3[nH]2)n1
- % Inhibition: -6%
- Z score: 0.89

Structure (SMILES): CC(C)(C)NC(=O)C(=O)Nc1nc(-c2ccccn2)cs1
- % Inhibition: 10%
- Z score: -0.99

Structure (SMILES): COc1ccc(-c2nc3cc(C)ccn3c2NC(=O)CCC2CCCC2)cc1
- % Inhibition: 5%
- Z score: -0.5

Structure (SMILES): Cn1ccnc1C(=O)N[C@H]1CCc2n[nH]c(=O)n2CC1
- % Inhibition: -12%
- Z score: 1.86

Structure (SMILES): C[C@H](NC(=O)Cc1csc(NC(=O)c2cccc(O)c2)n1)C1CC1
- % Inhibition: -16%
- Z score: 3.43

Structure (SMILES): CN(C)C1(CNS(=O)(=O)c2ccc(C(N)=O)cc2)CCCC1
- % Inhibition: -9%
- Z score: 1.39

Structure (SMILES): CN(C)c1nc(N)cc(-c2cccc3cccnc23)n1
- % Inhibition: 57%
- Z score: -7.96

Structure (SMILES): Cn1c(=O)c2c(ncn2Cc2nc(C(C)(C)C)cs2)n(C)c1=O
- % Inhibition: 0%
- Z score: 0.05

Structure (SMILES): CC(C)c1noc(N2CCC(C3(C)OCCO3)CC2)n1
- % Inhibition: -4%
- Z score: 0.34

Structure (SMILES): O=C(c1cnc(O[C@H]2CCOC2)c(Cl)c1)N1CCCC1
- % Inhibition: -6%
- Z score: 1.07

Structure (SMILES): Cc1cccc(N2N=C(C(=O)NCCc3cccnc3)CCC2=O)c1
- % Inhibition: -12%
- Z score: 2.24

Structure (SMILES): COCCN1CCCN(S(=O)(=O)c2ccc(F)c(F)c2)CC1=O
- % Inhibition: -10%
- Z score: 0.97

Structure (SMILES): COc1ccc(C(O)(c2ccc(OC)cc2)c2ccc(CN(CCN3CCOCC3)Cc3ccc(C)cc3)o2)cc1
- % Inhibition: -4%
- Z score: 0.58

Structure (SMILES): COCc1cc(N[C@@H](Cn2cccn2)c2ccccc2)ncn1
- % Inhibition: -6%
- Z score: 0.59

Structure (SMILES): CC(C)NC(=O)[C@@]1(CCO)CCN(c2ncccn2)C1
- % Inhibition: -8%
- Z score: 1.59

Structure (SMILES): CCOc1ccc(C(=O)N2CC(N3C(=O)CCC3=O)C2)cc1OCC
- % Inhibition: 0%
- Z score: -0.05

Structure (SMILES): O=C(NCCCn1c(-c2ccncc2)nc2cccnc21)Nc1cccc(Br)c1
- % Inhibition: -18%
- Z score: 1.56

Structure (SMILES): Cc1ccc(NC(=O)CN2CCc3[nH]cnc3C2)nc1
- % Inhibition: -7%
- Z score: 1.16

Structure (SMILES): CCc1ccc2c(c1)c(-c1ccc(Cl)cc1)c(C(=O)NCCN1CCCCC1)n2C
- % Inhibition: 3%
- Z score: -0.41

Structure (SMILES): O=C1CC[C@H](C(=O)NC(Cc2ccccc2Cl)c2ccccc2)N1 (stereo partly specified)
- % Inhibition: -3%
- Z score: 0.41

Structure (SMILES): FC(F)(F)c1cnc(N2CCOC3(CCOCC3)CC2)s1
- % Inhibition: 105%
- Z score: -19.68

Structure (SMILES): Cc1noc(C)c1C(=O)NCC1(OCCO)CCCC1
- % Inhibition: -2%
- Z score: 0.21

Structure (SMILES): Cc1ccc(CNC(=O)N2CC(n3ccnc3C)C2)cc1
- % Inhibition: -10%
- Z score: 1.28

Structure (SMILES): CCN1CCN(c2nc(-c3ccccc3)ncc2C(=O)NC2CCCCC2)CC1
- % Inhibition: -4%
- Z score: 0.79

Structure (SMILES): CS(=O)(=O)NC[C@H]1COCCN1C(=O)Nc1nc2ccccc2s1
- % Inhibition: -10%
- Z score: 2.05

Structure (SMILES): CCCN(CC(=O)Nc1c(C#N)c(C)c(C)n1C[C@H]1CCCO1)Cc1nnc(-c2cccs2)o1
- % Inhibition: -12%
- Z score: 1.57

Structure (SMILES): Cc1cc(NC(=O)c2ncc(-c3ccccc3)o2)sn1
- % Inhibition: 1%
- Z score: -0.08

Structure (SMILES): COCCN1C[C@]2(CCCN(C(=O)NCc3nc(C(C)C)no3)C2)CCC1=O
- % Inhibition: 0%
- Z score: -0.01

Structure (SMILES): CCn1cc2ccc(NC(=O)c3scnc3C3CC3)cc2n1
- % Inhibition: -4%
- Z score: 0.37

Structure (SMILES): C=CC[C@]1(CO)CCCN(C(=O)c2cc(=O)c(OC)c[nH]2)C1
- % Inhibition: -9%
- Z score: 1.76

Structure (SMILES): CC1=C(c2ccccc2)S(=O)(=O)N=C1N1CCC(NC(=O)[C@@H]2CCCO2)CC1
- % Inhibition: -6%
- Z score: 1.1

Structure (SMILES): NC(=O)CC1(NC(=O)Cc2ccc(Cl)c(Cl)c2)CCC1
- % Inhibition: -9%
- Z score: 1.36

Structure (SMILES): CNC(=O)[C@H](C)Oc1ccc(Br)cc1
- % Inhibition: -11%
- Z score: 1.09

Structure (SMILES): Cc1cc2c(N3CCN(C(=O)CN4CCOCC4)CC3)nccc2o1
- % Inhibition: -9%
- Z score: 1.25

Structure (SMILES): O=C(NCCCN1CCOCC1)c1cc2n(n1)CCN(Cc1ccc(F)cc1)C2=O
- % Inhibition: -2%
- Z score: 0.49

Structure (SMILES): COC(=O)[C@@H]1C[C@@H](NC(=O)c2cc(C(F)(F)F)ccc2Cl)CN1
- % Inhibition: -6%
- Z score: 1.15

Structure (SMILES): Cc1ccc(S(=O)(=O)N2CCc3cc(S(=O)(=O)NC4CCCC4)ccc32)cc1C
- % Inhibition: -11%
- Z score: 1.47

Structure (SMILES): O=c1[nH]c2ccc(Cn3cc([C@H]4CCOC4)nn3)cc2[nH]1
- % Inhibition: -6%
- Z score: 1.03

Structure (SMILES): O=C(c1ccc(Cl)s1)N1CC[C@H](Cc2nnc(C3CCOCC3)o2)C1
- % Inhibition: -8%
- Z score: 1.56

Structure (SMILES): O=C(N[C@H](c1ccccc1)c1nnn[nH]1)c1ccccc1C1CCC1
- % Inhibition: 1%
- Z score: -0.13

Structure (SMILES): COC1CCN(c2ccc(NC(=O)CNS(=O)(=O)c3c(F)cccc3F)cc2)CC1
- % Inhibition: -8%
- Z score: 1.04

Structure (SMILES): Cc1ncc(C(=O)NCc2nc(N(C)C)no2)c(C(C)C)n1
- % Inhibition: 2%
- Z score: -0.25

Structure (SMILES): O=C(NCCOc1ccccc1)c1cc2n(n1)CCN(Cc1cccc(C(F)(F)F)c1)C2=O
- % Inhibition: -11%
- Z score: 1.37

Structure (SMILES): CCn1nc(Cc2c(Cl)cccc2Cl)nc1[C@H]1CCS(=O)(=O)C1
- % Inhibition: -5%
- Z score: 0.56

Structure (SMILES): Cc1cc(F)ccc1[C@@H]1CCCN1S(=O)(=O)c1ccnn1C
- % Inhibition: -9%
- Z score: 1.16

Structure (SMILES): O=C(CNS(=O)(=O)c1cc(F)c(F)cc1F)Nc1cccnc1
- % Inhibition: 1%
- Z score: -0.21

Structure (SMILES): CCOC(=O)N1CCN(c2cc(C3CCN(C)CC3)ncn2)CC1
- % Inhibition: -8%
- Z score: 1.04

Structure (SMILES): CC(C)Oc1ccc([C@@H](O)CNc2ccc(C#N)nc2)cc1
- % Inhibition: -8%
- Z score: 1.47

Structure (SMILES): Cc1ccc(N2CCC(N3C[C@H](NS(C)(=O)=O)[C@@H](C(C)C)C3)CC2)cc1
- % Inhibition: -12%
- Z score: 1.58

Structure (SMILES): COC(=O)c1c(NC(=O)c2ccccc2)c2cc(NCc3ccc(OCCO)cc3)cnc2n1C[C@H]1CCCO1
- % Inhibition: -20%
- Z score: 2.29

Structure (SMILES): Cc1nn(C(C)C)cc1CN[C@H]1CCCN(Cc2ccccc2)C1=O
- % Inhibition: 28%
- Z score: -2.82

Structure (SMILES): Cc1cccc(N2CCN(C(=O)c3cnn4c(C(F)(F)F)cc(-c5ccccc5)nc34)C[C@@H]2C)c1
- % Inhibition: 2%
- Z score: -0.47

Structure (SMILES): COc1ncccc1C(=O)NC[C@H]1CCCN(c2nccs2)C1
- % Inhibition: 16%
- Z score: -2

Structure (SMILES): CC(=O)N1CCC(C(=O)N2CCN(c3nonc3C)CC2)CC1
- % Inhibition: -16%
- Z score: 1.63

Structure (SMILES): COc1ncccc1CN(CCC(N)=O)c1ccc(F)cc1
- % Inhibition: 6%
- Z score: -0.59

Structure (SMILES): CC(C)[C@H](Cn1nccn1)NS(=O)(=O)c1ccccc1
- % Inhibition: -3%
- Z score: 0.51

Structure (SMILES): CCS(=O)(=O)c1ccccc1C(=O)Nc1ccc(N2C(=O)c3ccccc3C2=O)c(Cl)c1
- % Inhibition: -5%
- Z score: 0.65

Structure (SMILES): Cc1sc(-c2cc(C(F)(F)F)[nH]n2)cc1S(=O)(=O)N1C[C@H]2CC[C@@H](C1)[C@@H]2N
- % Inhibition: -3%
- Z score: 0.34

Structure (SMILES): COc1ccc2nc(NC(=O)C(=O)NCCc3ccc4c(c3)OCCO4)sc2c1
- % Inhibition: -43%
- Z score: 5.1

Structure (SMILES): CC[C@@H](C)[C@H](NC(=O)Nc1cccc(C(F)(F)F)c1)C(=O)O
- % Inhibition: -18%
- Z score: 2.23

Structure (SMILES): Fc1ccc2oc(Cn3nnc(-c4ccsc4)n3)nc2c1
- % Inhibition: -7%
- Z score: 0.76

Structure (SMILES): CN1CCC2(CC1)CN(C(=O)c1ccc(OCC(F)(F)F)o1)[C@@H]1COC[C@@H]12
- % Inhibition: -1%
- Z score: 0.16

Structure (SMILES): CNC(=O)CCOC(=O)c1cc(Cl)cc(C(F)(F)F)c1
- % Inhibition: 2%
- Z score: -0.32

Structure (SMILES): C[C@H](NC(=O)c1ccccc1N1CCC(NC(=O)c2ccc(Br)cc2)CC1)c1ccccc1
- % Inhibition: 0%
- Z score: 0.04

Structure (SMILES): Cc1noc(C)c1CNc1nnc(CC2CCCCC2)s1
- % Inhibition: -6%
- Z score: 1.07

Structure (SMILES): CCO[C@@H](C)c1noc(CNC(=O)N2CCCCC2)n1
- % Inhibition: -11%
- Z score: 1.44

Structure (SMILES): COCCn1ccc(NC2CC3CCC2C3)n1 (stereo unspecified)
- % Inhibition: 2%
- Z score: -0.24

Structure (SMILES): O[C@@H](Cn1cnc2cc(F)c(F)cc21)C1(O)CCC1
- % Inhibition: -9%
- Z score: 1.69

Structure (SMILES): Cc1ccsc1CN(C)[C@H]1CCN(C(C)(C)C)C1=O
- % Inhibition: 5%
- Z score: -0.73

Structure (SMILES): CCc1nnc(CNC(=O)c2ccc3c(c2)OCO3)o1
- % Inhibition: -10%
- Z score: 1.48

Structure (SMILES): Cc1nc([C@@H]2CCCCN2C(=O)Nc2ccc(Cl)cc2Cl)n[nH]1
- % Inhibition: -3%
- Z score: 0.57

Structure (SMILES): CN(C)C(=O)N1CCC(c2nc(-c3ccc4c(c3)OCO4)no2)CC1
- % Inhibition: 2%
- Z score: -0.24
